# Data: PubChem BioAssay (NCATS)
# Where “and” joins values, the source holds several entries; their conditions need not be identical. Identical values can stand only once. The shares of active, inactive and inconclusive entries below differ from those in the screen. For some assays here: Potencies of inconclusive entries are doubtful fits and often do not repeat. For some assays here: “Side channel” marks fits to a control or component signal instead of the main read-out. Calls of active or inactive are those of the source. Unless noted, the call rests on the fitted dose curve; in most records, active means well fitted curve in the direction sought with a large enough effect; inconclusive means small, poorly fitted or top-dose-only effect, or another doubt; inactive means no such curve, though single readings can be large; an effect the other way counts as inactive or inconclusive.
# Columns and labels:
# [1] = target: Cytochrome P450 3A4 (Homo sapiens) (UniProt P08684); experiment: qHTS Assay for Activators of Cytochrome P450 3A4 (AID 885); conditions: recombinant CYP3A4, Luciferin-PPXE luminescence, 60 min; further: potency means the concentration at half of the fitted maximal effect; nearly all actives have a fitted effect of over 65% in size
# UniProt P08684, sequence (P08684 whole entry, looked up): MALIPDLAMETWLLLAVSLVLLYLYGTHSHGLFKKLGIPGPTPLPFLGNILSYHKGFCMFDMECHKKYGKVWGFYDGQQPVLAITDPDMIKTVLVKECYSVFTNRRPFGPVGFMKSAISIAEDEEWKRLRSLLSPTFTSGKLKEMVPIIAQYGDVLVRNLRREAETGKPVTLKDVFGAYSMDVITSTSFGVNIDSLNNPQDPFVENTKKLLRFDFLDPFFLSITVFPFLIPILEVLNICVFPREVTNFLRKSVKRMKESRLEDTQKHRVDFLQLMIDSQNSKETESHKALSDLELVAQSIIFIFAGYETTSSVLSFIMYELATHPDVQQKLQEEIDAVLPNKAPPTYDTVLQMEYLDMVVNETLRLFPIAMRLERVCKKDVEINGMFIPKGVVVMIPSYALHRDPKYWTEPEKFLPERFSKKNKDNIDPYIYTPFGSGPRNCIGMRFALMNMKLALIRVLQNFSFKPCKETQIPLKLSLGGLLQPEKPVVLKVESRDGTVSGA
# Summary of the method: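 Using 20nM recombinant human CYP3A4 in potassium phosphate (200mM), substrate Luciferin-PPXE at 25uM, luminescent luciferin detection followed a 60-min RT NADPH reaction; data scaled to 57 uM ketoconazole.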
# [2] = qHTS Assay for Identification of Small Molecule Antagonists for NFkB Signaling Pathway (AID 895; active means well fitted inhibition curve with a large enough effect in the signal ratio, with a control signal flat, not every such curve was filed as active; inconclusive means small, poorly fitted or top-dose-only effect, or effect the other way, or a change in a side signal; the % refers to the signal ratio; further: potency means the concentration at half of the fitted maximal effect; on activity change, negative = inhibition: on the % scale 0 is the no-effect control and ±100 the full control effect); conditions: NFkB beta-lactamase reporter cells, FRET ratio 460/530, stimulated with 10 pM TNF alpha; activity change, negative = inhibition: at 38.3 µM (top of the series)
# Summary of the method: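 Beta-lactamase reporter read-out (460 and 530 nm emission ratio, 405 nm excitation, 2 hrs substrate loading RT) after 5 hr stimulation with 10 pM TNF alpha in compound-treated NFkB-bla ME-180 cells in low-serum medium.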
# [3] = qHTS Assay for Identification of Small Molecule Agonists for Hypoxia Response Element Signaling Pathway (AID 914; active means well fitted activation curve with a large enough effect in the signal ratio, with a control signal flat, not every such curve was filed as active; inconclusive means small, poorly fitted or top-dose-only effect, or effect the other way, or a change in a side signal; the % refers to the signal ratio; further: potency means the concentration at half of the fitted maximal effect; on activation: top concentration of the series differs between compounds; % of control where 0% means no effect); conditions: ME-180 (cervical carcinoma) HRE-bla reporter, beta-lactamase ratio, CoCl2, 17 h; activation: active compounds read high
# Summary of the method: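 A beta-lactamase reporter under hypoxia response element control in ME-180 cells served as the system. Compound titrations plus EC50 CoCl2 ran 17 h at 37 degrees Celsius; AC50 values were fitted from %Activity.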
# [4] = qHTS Assay for Identification of Small Molecule Antagonists for Thrombopoietin (TPO) Signaling Pathway (AID 918); conditions: TPO-dependent cell signaling reporter, antagonist mode; activity change, negative = inhibition: at 38.5 µM (top of the series); further: nearly all actives have a fitted effect of over 60% in size
# Summary of the method: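 Antagonist mode at EC50 TPO (26 pM) in IL-3-free medium; murine Ba/F3 cells with human TPO receptor and GPIIb-promoter luciferase, 24 hrs at 37 C before luminescent detection.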
# [5] = target: Cytochrome P450 2C9 (Homo sapiens) (UniProt P11712); experiment: qHTS Assay for Inhibitors and Substrates of Cytochrome P450 2C9 (AID 883); conditions: recombinant CYP2C9, luciferin-H luminescence, 60 min; series mostly up to 57.1 µM; further: on the % scale 0 is the no-effect control and ±100 the full control effect; nearly all actives have a fitted effect of over 60% in size
# UniProt P11712, sequence (P11712 whole entry, looked up): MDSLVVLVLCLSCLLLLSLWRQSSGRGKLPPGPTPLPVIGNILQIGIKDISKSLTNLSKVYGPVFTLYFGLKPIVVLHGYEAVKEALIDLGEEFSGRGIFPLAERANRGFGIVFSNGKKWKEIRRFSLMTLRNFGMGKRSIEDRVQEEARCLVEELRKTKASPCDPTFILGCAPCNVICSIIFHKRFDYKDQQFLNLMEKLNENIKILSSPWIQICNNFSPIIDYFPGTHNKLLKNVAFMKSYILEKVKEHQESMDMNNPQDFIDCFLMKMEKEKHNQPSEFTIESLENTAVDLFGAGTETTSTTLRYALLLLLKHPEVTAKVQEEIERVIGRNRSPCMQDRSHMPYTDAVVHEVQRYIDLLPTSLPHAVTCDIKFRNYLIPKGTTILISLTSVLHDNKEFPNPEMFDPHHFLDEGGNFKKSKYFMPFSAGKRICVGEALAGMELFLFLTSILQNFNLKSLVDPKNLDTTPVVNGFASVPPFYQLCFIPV
# Summary of the method: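 Inhibition of CYP2C9 is scored as loss of luminescence, with 57uM sulphaphenazole defining 100% inhibition. Substrate Luciferin-H is used at 100uM, equal to its KM; enzyme at 10nM in 25mM KPO4, 60 min at 37C with NADPH regeneration.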
# [6] = qHTS Assay for Identification of Small Molecule Agonists for Thrombopoietin (TPO) Signaling Pathway (AID 917); conditions: TPO signaling pathway reporter cells, agonist qHTS, stimulated with TPO at its EC50; series mostly up to 38.5 µM; further: potency means the concentration at half of the fitted maximal effect
# Summary of the method: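 First, Ba/F3 cells with human TPO receptor were held overnight without IL-3. Next, compounds and TPO (26 pM final) were added. After 24 hrs at 37 C, luciferase detection reagent was added and luminescence measured following 10 min at room temperature.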
# [7] = Cellular Toxicity (caspase-3) Mesangial (AID 660); conditions: mesangial cells, normalized: DMSO 0%, 100 µM tamoxifen 100%; at 91.7 µM (top of the series);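 further: combined caspase 3 and 7 activity read by Caspase-Glo luminescence; cells exposed to compound for 16 h before the caspase read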
# Summary of the method: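 AC50 values come from Hill-equation fits of caspase 3/7 activation, measured as Caspase-Glo luminescence in human glomerular mesangial cells exposed to compound for 16 h at 37 °C; 100% set by 100 uM tamoxifen.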
# [8] = Cellular Toxicity (caspase-3) SK-N-SH (AID 661); conditions: SK-N-SH caspase-3 activation, qHTS, DMSO as zero, staurosporine as full; at 91.7 µM (top of the series)
# Summary of the method: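 Apoptosis readout in SK-N-SH neuroblastoma: Caspase-Glo 3/7 luminescence following 16 hr treatment in complete culture medium. Normalization used DMSO and 10 uM staurosporine controls.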
# [9] = Cellular Toxicity (caspase-3) H-4-II-E (AID 663); conditions: H-4-II-E rat hepatoma, scaled: DMSO 0%, 100 µM tamoxifen 100%; at 92.2 µM (top of the series);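 further: cells exposed to compound for 16 hr before readout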
# Summary of the method: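 Caspase 3/7 activation measured by luminescent aminoluciferin substrate cleavage after 16 hr compound treatment of H-4-II-E cells in complete medium. Increase normalized between DMSO (basal) and 100 uM tamoxifen (100%); Hill-equation AC50 from concentration-response.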
# [10] = Cellular Toxicity (caspase-3) Hek293 (AID 664); conditions: HEK293 caspase-3 activation; caspase-3 activation: at 92.2 µM (top of the series), DMSO = 0%, 100 µM tamoxifen = 100%;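 further: cells exposed to compound for 16 h at 37 °C before readout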
# Summary of the method: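 Apoptosis readout: Caspase-Glo 3/7 signal in human HEK293 cells following 16-hour compound incubation. Responses scaled between DMSO baseline and 100 uM tamoxifen.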
# [11] = Cellular Toxicity (caspase-3) N2a (AID 665); conditions: N2a cells, luminescence, normalized: DMSO 0%, 10 µM staurosporine 100%; at 92.2 µM (top of the series);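 further: compound exposure lasted 16 h at 37 °C before readout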
# Summary of the method: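 Concentration-response qHTS: compound-induced caspase-3/7 luminescence in N2a cells (16 h, 37 °C), relative to DMSO and 10 uM staurosporine controls; AC50 obtained using the standard Hill equation.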
# Tags describe the fitted curve by direction and shape or compound fluorescence and quenching.
smiles,measurement,setting,value
COc1cc2nc(N3CCN(C(=O)c4ccco4)CC3)nc(N)c2cc1OC,Potency,[1],"inconclusive: 12.6 µM [activator, partial curve]"
CCCC(CCC)C(=O)O,Potency,[2],"inconclusive: 2.82 µM [activator, single point]"
same,activation,[3],inconclusive: 31.4%
same,"activity change, negative = inhibition",[4],inconclusive: 2.56% [phenotype inactive]
CNC[C@H](O)c1cccc(O)c1,Potency,[2],"inconclusive: 3.55 µM [inhibitor, full curve, poor fit]"
same,Potency,[3],"inconclusive: 251 nM [inhibitor, full curve] and inconclusive: 100 nM [inhibitor, full curve, poor fit]"
same,"activity change, negative = inhibition",[4],inconclusive: -7.98% [phenotype inactive]
CC1(C)C(=O)N(CCN2CCC(C(=O)c3ccc(F)cc3)CC2)c2ccccc21,Potency,[5],inactive
same,Potency,[2],"inconclusive: 0.0316 µM [inhibitor, full curve, poor fit]"
same,Potency,[6],"inconclusive: 10 µM [inhibitor, partial curve, poor fit]"
Oc1ccc(-c2nc(-c3ccc(F)cc3)c(-c3ccncc3)[nH]2)cc1,Potency,[2],"inconclusive: 11.2 µM [cytotoxic, side channel, partial curve]"
same,activation,[3],inconclusive: 45%
same,Potency,[6],"inconclusive: 31.6 µM [inhibitor, single point]"
Clc1ccc(C(c2ccccc2Cl)C(Cl)Cl)cc1 (stereo not given),caspase-3 activation,[7],inactive: 6.22%
same,caspase-3 activation,[8],inconclusive: 35.7%
same,caspase-3 activation,[9],inconclusive: 67.4%
same,caspase-3 activation,[10],active: 133%
same,caspase-3 activation,[11],inconclusive: 50.2%
same,"activity change, negative = inhibition",[2],inconclusive: 5.03%
same,"activity change, negative = inhibition",[4],inconclusive: -8.62% [phenotype inactive]
